Test results taken from US20240190943A1 (HANGZHOU EXEGENESIS BIO, published 2024).

Legend:
[1] = molecular target: T1, angiopoietin 2 (UniProt O15123 19-496, limits assumed); experiment: Ang2 binding ELISA (OD450), titration in pM of the product of plasmid-transfected cells
T1 construct: also called Ang2; ANGPT2
T1 sequence (looked up): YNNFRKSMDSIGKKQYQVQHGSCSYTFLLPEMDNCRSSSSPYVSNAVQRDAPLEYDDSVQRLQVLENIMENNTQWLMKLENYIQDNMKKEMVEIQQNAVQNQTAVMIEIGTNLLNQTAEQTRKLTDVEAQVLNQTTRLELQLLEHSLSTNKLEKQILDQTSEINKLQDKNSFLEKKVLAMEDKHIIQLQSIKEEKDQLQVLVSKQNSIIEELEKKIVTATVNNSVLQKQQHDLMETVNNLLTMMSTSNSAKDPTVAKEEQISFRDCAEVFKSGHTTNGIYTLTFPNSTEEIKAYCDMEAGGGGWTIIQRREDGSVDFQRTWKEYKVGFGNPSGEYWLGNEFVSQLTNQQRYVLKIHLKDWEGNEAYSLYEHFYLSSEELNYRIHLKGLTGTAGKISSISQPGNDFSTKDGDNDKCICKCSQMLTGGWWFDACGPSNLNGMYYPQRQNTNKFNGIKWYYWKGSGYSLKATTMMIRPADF

[2] = molecular target: T2, VEGF-C (UniProt P49767 103-227, limits assumed); experiment: ELISA on VEGF-C, protein affinity-purified from transfected HEK293T cells; axis 'VEGF-C (130nM) Affinity OD450'
T2 sequence (looked up): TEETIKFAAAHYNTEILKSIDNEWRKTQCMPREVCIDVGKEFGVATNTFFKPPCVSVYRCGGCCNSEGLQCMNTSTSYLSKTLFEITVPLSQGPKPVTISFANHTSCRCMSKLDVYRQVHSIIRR
Experimental: HEK293T cells were transfected with plasmid DNA of pEXG102-02, pEXG102-30 or pEXG102-31 and the target protein expressed were affinity purified from the cell lysate. Binding capability of EXG102-02, EXG102-30 or EXG102-31 to VEGF-A, Ang2, or VEGF-C was measured by ELISA respectively. Bars present Mean with SD.
In vitro VEGF-A, Ang2, or VEGF-C binding affinity of the transgene products expressed from HEK293T cells was measured. HEK293T cells were transfected with plasmid DNA of pEXG102-02, pEXG102-30 or pEXG102-31. The target protein expressed were affinity purified from the cell lysate. Binding capability of EXG102-02, EXG102-30 and EXG102-31 to VEGF-A, Ang2, and VEGF-C was measured by ELISA, respectively.

[3] = molecular target: T3, VEGF-A (UniProt P15692-4 27-191, limits assumed); experiment: ELISA: wells coated with rVEGF, conditioned medium of HEK293 cells, anti-Fc-HRP, OD450; given as concentration in the medium
T3 construct: also called rVEGF; vascular endothelial growth factor
T3 sequence (looked up): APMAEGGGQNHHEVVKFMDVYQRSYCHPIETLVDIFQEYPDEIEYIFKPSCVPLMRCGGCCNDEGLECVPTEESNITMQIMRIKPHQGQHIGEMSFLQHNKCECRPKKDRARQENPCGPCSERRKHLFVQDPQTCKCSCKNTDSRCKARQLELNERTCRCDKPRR

[4] = molecular target: T3, VEGF-A; experiment: rVEGF ELISA value divided by the Western blot intensity of the same conditioned medium
[5] = molecular target: T3, VEGF-A; experiment: rVEGF ELISA value relative to the Western blot intensity of the same DMEM 72h conditioned medium
[6] = molecular target: T3, VEGF-A; experiment: ELISA: wells coated with rVEGF, DMEM 72h conditioned medium, anti-Fc-HRP, OD450; given as concentration in the medium

B1: Exemplary polypeptide 3 (Fc fusion)
chain: GGGGGSGGGGGAQQEECEWDPWTCEHMGSGSATGGSGSTASSGSGSATHQEECEWDPWTCEHMLEGGGGGSSDTGRPFVEMYSEIPEIIHMTEGRELVIPCRVTSPNITVTLKKFPLDTLIPDGKRIIWDSRKGFIISNATYKEIGLLTCEATVNGHLYKTNYLTHRQTNTIIDVVLSPSHGIELSVGEKLVLNCTARTELNVGIDFNWEYPSSKHQHKKLVNRDLKTQSGSEMKKFLSTLTIDGVTRSDQGLYTCAASSGLMTKKNSTFVRVHEK[sequence of human IgG1 Fc not given]
notes: also called EXG102-11; EXG102-12
[1]
  EC50 (read off the curve): ~50 pM

B2: Exemplary polypeptide 11 (as in EXG102-30) (Fc fusion)
chain: GGGGGAQGSGSATGGSGSTASSGSGSATHKFNPLDELEETLYEQFTFQQGGGGGQEECEWDPWTCEHMLEGGGGGSSDTGRPFVEMYSEIPEIIHMTEGRELVIPCRVTSPNITVTLKKFPLDTLIPDGKRIIWDSRKGFIISNATYKEIGLLTCEATVNGHLYKTNYLTHRQTNTIIDVVLSPSHGIELSVGEKLVLNCTARTELNVGIDFNWEYPSSKHQHKKLVNRDLKTQSGSEMKKFLSTLTIDGVTRSDQGLYTCAASSGLMTKKNSTFVRVHEK[sequence of human IgG1 Fc not given]
notes: also called pEXG102-30 transgene product
[2]
  binding result: no binding (tested: about 160000 pM)

B3: Exemplary polypeptide 12 (as in EXG102-31) (Fc fusion)
chain: GGGGGAQGSGSATGGSGSTASSGSGSATHKFNPLDELEETLYEQFTFQQGGGGGQEECEWDPWTCEHMLEGGGGGSSDTGRPFVEMYSEIPEIIHMTEGRELVIPCRVTSPNITVTLKKFPLDTLIPDGKRIIWDSRKGFIISNATYKEIGLLTCEATVNGHLYKTNYLTHRQTNTIIDVVLSPSHGIELSVGEKLVLNCTARTELNVGIDFNWEYPSSKHQHKKLVNRDLKTQSGSEMKKFLSTLTIDGVTRSDQGLYTCAASSGLMTKKNSTFVRVHEKGGGGGSYSMTPPTLNITEESHVIDTGDSLSISCRGQHPLEWAWPGAQEAPATGDKDSEDTGVVRDCEGTDARPYCKVLLLHEVHANDTGSYVCYYKYIKARIEGTTAASSYVFVRDFEQPFINKPDTLLVNRKDAMWVPCLVSIPGLNVTLRSQSSVLWPDGQEVVWDDRRGMLVSTPLLHDALYLQCETTWGDQDFLSNPFLVHITG[sequence of human IgG1 Fc not given]
notes: also called pEXG102-31 transgene product
[2]
  EC50 (read off the curve): ~7000 pM

B4: Exemplary polypeptide 1 (Fc fusion)
chain: SDTGRPFVEMYSEIPEIIHMTEGRELVIPCRVTSPNITVTLKKFPLDTLIPDGKRIIWDSRKGFIISNATYKEIGLLTCEATVNGHLYKTNYLTHRQTNTIIDVVLSPSHGIELSVGEKLVLNCTARTELNVGIDFNWEYPSSKHQHKKLVNRDLKTQSGSEMKKFLSTLTIDGVTRSDQGLYTCAASSGLMTKKNSTFVRVHEK[sequence of human IgG1 Fc not given]GGGGGAQQEECEWDPWTCEHMGSGSATGGSGSTASSGSGSATHQEECEWDPWTCEHMLE
notes: also called EXG102-04; EXG102-07
[1]
  EC50 (read off the curve): ~80 pM
[3]
  ELISA ug/mL (Binding to rVEGF): 8.22 µg/mL
[4]
  Ratio ELISA/WB: 1.1
[5]
  Ratio ELISA/WB: 1.8
[6]
  ELISA ug/ml (Binding to rVEGF): 5.38 µg/mL
